# B1: CB-8-42 (antibody, human IgG1, kappa)
# heavy: EVQLVQSGAEVKKPGASVKVSCKASGYTFTSYGISWVRQAPGQGLEWMGWISAYSGNTNYAQKLQGRVTMTTDTSTSTAYMELRSLRSDDTAVYYCATLLPSGSLYYWGQGTLVTVSSASTKGPSVFPLAPSSKSTSGGTAALGCLVKDYFPEPVTVSWNSGALTSGVHTFPAVLQSSGLYSLSSVVTVPSSSLGTQTYICNVNHKPSNTKVDKKV[letters of human IgG1 Fc with E233A L235A (EU numbers) left out]
# light: DIVMTQSPSSLSAPVGDRVTITCQASQDIRNYINWFQQKPGKAPKLLIYAASYLQSGVPSRFSGSGSGTDFTLTISSLQPEDFATYYCQQSYSTPQWTFGQGTKVEIKRTVAAPSVFIFPPSDEQLKSGTASVVCLLNNFYPREAKVQWKVDNALQSGNSQESVTEQDSKDSTYSLSSTLTLSKADYEKHKVYACEVTHQGLSSPVTKSFNRGEC
# Key:
# Assay in all cases: cell-based or functional assay
# [1] = biological target: human FGFR1c/βKlotho receptor (human), P11362
# Chain of human FGFR1c/βKlotho receptor (human), P11362 (P11362 22-822, chain 1 of 2): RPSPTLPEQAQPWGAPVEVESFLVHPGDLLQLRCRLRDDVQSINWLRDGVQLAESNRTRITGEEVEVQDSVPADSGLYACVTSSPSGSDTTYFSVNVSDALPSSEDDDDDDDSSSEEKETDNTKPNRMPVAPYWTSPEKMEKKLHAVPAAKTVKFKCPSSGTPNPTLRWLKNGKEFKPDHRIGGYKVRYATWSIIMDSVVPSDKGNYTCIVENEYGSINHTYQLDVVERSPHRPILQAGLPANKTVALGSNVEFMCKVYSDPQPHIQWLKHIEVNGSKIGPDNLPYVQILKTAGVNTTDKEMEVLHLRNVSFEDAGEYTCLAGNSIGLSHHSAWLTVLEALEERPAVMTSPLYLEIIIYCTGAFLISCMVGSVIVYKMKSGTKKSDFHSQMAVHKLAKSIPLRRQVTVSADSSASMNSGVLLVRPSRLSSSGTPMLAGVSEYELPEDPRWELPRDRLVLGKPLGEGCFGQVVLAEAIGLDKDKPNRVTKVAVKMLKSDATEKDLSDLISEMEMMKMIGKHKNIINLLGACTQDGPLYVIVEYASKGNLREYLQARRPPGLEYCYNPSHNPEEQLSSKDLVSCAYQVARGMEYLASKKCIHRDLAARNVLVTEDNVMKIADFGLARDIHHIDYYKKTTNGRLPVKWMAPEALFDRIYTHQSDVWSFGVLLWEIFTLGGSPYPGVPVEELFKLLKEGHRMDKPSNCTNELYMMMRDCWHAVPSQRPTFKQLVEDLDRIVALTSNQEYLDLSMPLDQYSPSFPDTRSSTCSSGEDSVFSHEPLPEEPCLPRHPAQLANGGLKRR
# Chain of human FGFR1c/βKlotho receptor (human), P11362 (chain, as listed by the source, chain 2 of 2): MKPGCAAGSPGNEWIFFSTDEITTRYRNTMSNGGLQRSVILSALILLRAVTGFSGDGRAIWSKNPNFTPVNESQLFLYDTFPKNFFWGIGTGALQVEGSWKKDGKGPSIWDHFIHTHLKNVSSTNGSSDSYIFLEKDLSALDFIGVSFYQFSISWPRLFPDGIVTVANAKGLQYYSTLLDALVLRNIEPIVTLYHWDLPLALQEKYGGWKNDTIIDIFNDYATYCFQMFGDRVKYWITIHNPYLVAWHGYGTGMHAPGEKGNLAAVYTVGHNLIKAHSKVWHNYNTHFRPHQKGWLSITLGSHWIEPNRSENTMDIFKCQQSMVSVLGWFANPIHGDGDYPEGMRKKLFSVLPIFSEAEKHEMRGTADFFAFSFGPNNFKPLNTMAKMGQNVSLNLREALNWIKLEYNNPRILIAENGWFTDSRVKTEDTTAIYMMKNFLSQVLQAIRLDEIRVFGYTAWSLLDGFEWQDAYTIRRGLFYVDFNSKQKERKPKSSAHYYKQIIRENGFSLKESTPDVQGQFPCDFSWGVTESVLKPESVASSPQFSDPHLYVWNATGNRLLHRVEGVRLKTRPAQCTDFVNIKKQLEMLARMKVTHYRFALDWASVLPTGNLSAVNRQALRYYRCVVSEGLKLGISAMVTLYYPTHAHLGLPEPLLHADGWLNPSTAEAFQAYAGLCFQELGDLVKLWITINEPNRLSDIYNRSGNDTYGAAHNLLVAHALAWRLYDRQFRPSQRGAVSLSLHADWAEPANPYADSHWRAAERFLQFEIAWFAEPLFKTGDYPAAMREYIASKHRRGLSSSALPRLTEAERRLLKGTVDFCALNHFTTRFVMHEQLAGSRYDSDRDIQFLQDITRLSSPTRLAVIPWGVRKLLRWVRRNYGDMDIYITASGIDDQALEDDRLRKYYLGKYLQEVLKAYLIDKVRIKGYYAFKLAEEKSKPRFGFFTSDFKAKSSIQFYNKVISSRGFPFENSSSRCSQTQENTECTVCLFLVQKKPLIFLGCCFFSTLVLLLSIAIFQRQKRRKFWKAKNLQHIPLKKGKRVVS
# [2] = biological target: human FGFR2c/βKlotho receptor (human), P21802
# Chain of human FGFR2c/βKlotho receptor (human), P21802 (P21802 22-821, chain 1 of 2): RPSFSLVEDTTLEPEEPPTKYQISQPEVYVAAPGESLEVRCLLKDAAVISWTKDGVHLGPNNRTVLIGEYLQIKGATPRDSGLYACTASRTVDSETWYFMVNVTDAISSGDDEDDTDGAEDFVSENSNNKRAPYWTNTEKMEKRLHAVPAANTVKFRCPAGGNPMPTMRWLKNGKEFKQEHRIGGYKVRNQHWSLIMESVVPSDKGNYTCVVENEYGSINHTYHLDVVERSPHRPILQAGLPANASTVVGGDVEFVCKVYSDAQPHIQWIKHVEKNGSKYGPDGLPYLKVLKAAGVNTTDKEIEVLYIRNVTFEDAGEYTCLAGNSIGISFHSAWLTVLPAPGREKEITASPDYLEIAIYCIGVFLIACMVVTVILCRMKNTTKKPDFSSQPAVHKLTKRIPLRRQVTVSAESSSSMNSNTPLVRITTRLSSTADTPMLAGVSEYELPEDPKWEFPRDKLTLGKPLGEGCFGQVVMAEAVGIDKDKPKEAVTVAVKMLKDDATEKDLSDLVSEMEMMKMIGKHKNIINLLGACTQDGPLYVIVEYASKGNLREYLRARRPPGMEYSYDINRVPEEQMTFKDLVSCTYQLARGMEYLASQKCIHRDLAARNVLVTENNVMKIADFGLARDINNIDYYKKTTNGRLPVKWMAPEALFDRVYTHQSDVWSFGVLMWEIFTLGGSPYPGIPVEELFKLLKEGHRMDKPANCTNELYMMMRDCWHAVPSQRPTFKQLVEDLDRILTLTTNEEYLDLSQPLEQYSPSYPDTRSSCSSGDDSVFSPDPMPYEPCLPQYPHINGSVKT
# Chain of human FGFR2c/βKlotho receptor (human), P21802 (chain, as listed by the source, chain 2 of 2): as the sequence (chain, as listed by the source, chain 2 of 2) above
# [3] = biological target: human FGFR3c/βKlotho receptor (human), P22607
# Chain of human FGFR3c/βKlotho receptor (human), P22607 (P22607 23-806, chain 1 of 2): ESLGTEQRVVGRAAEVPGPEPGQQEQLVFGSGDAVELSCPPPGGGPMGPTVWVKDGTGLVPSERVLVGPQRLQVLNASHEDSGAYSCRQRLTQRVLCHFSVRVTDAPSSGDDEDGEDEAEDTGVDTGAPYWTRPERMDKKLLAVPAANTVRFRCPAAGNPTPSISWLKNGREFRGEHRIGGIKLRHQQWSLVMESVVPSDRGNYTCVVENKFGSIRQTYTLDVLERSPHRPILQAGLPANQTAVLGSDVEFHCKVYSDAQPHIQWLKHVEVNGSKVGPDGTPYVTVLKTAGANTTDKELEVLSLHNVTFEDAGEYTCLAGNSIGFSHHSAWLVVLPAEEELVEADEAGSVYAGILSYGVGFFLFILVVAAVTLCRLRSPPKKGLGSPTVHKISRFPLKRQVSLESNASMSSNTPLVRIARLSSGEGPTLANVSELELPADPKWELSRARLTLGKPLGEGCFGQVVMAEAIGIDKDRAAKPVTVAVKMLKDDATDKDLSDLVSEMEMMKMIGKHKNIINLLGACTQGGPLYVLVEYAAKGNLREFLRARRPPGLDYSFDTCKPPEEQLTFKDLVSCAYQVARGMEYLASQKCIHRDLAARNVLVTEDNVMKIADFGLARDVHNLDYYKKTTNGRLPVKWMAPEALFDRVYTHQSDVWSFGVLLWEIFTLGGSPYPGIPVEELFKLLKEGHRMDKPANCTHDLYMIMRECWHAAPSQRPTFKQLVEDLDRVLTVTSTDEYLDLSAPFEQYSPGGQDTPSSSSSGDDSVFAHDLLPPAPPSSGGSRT
# Chain of human FGFR3c/βKlotho receptor (human), P22607 (chain, as listed by the source, chain 2 of 2): as the sequence (chain, as listed by the source, chain 2 of 2) above
binder,measurement,setting,value
B1,"EC50, luciferase reporter-based assay (receptor activation)",[1],0.66 nM
same,"EC50, luciferase reporter-based assay (receptor activation)",[2],> 100 nM
same,"EC50, luciferase reporter-based assay (receptor activation)",[3],> 100 nM

# — patent US20250066509A1
